Data as given in the supplement of paper PMC3656093.
± gives the standard deviation of the averaged measurements. In all, about 1,900 compounds were measured (“CD40L-induced NF-kB luciferase activity, plate-corrected, relative to DMSO (0) and IKK inhibitor VII (-100) controls”: median about 0.032, lowest 2% from about -26 on). Some of the results follow.

system: BL2-NFkB-Luc; assay: CD40L-induced NF-kB luciferase activity, plate-corrected, relative to DMSO (0) and IKK inhibitor VII (-100) controls (% normalized activity); higher = more NF-kB reporter activity (less inhibition); conditions: 9.4 µM; stimulus: tCD40L 64 ng/ml; 4.5 h
Experimental: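 BL2 B cells with a stable NF-kB response-element luciferase reporter (BL2-NFkB-Luc), 384-well. Cells were pre-incubated with compound at 9.4 uM for 1 h at 37 C, then stimulated with 64 ng/ml trimerized CD40L for 4.5 h; luciferase was read with Steady-Glo. Signal was normalised per plate in Genedata (median DMSO neutral control = 0, median IKK inhibitor VII at 50 uM = -100) with Assay Median plate-pattern correction; duplicate plates.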

Compound	CD40L-induced NF-kB luciferase activity
CC(C)(Sc1cc(C(C)(C)C)c(O)c(C(C)(C)C)c1)Sc1cc(C(C)(C)C)c(O)c(C(C)(C)C)c1	-2.01 ± 8.5
CSCCC(NC(C)=O)C(=O)Oc1ccc2c3c(c(=O)oc2c1)CCCC3 (configuration not stated)	-1.07 ± 0.87
C[N+](C)(C)CCOP(=O)(O)OP(=O)(O)OC[C@H]1O[C@@H](n2ccc(N)nc2=O)[C@H](O)[C@@H]1O	-3.79 ± 4.1
COc1ccc(-c2c(NC(=O)c3ccco3)n(C)c3ccccc3c2=O)cc1	-0.968 ± 2.7
OC(CCCN1CCC(O)(c2ccc(Cl)cc2)CC1)c1ccc(F)cc1 (configuration not stated)	-5.07 ± 4.1
CN1CCC(=C2c3ccccc3CC(=O)c3sccc32)CC1	-2.13 ± 3.6
COc1ccc(NC(=S)N2CCN(CCN3C(=O)c4cccc5cccc(c45)C3=O)CC2)cc1	1.19 ± 0.65
COc1ccccc1N1CCN(CC(O)COc2cccc3ccccc23)CC1 (configuration not stated)	-8.19 ± 1.9
COc1cc2c(cc1OC)-c1cc(OCc3ccccc3Cl)nc(=O)n1CC2	-0.322 ± 1.2
Cc1ccc2c(CC(=O)O)coc2c1	-1.36 ± 1.1
CCOC(=O)NN1C(=O)c2ccccc2NC1c1ccc(OC)c(OC)c1 (configuration not stated)	0.7423 ± 0.0022
COc1cc(OC)c(C(=O)CCCN2CCCC2)c(OC)c1	-7.12 ± 15
CCN1CCn2c3c(c4cc(Cl)ccc42)CCCC31 (configuration not stated)	6.49 ± 1.6
C[C@]12C=CC(=O)C=C1CCC1C3CC[C@](O)(C(=O)CO)[C@@]3(C)CC3OC312 (some centres not stated)	-7.42 ± 5.5
O=C1C=CC(=O)C(C2=C3C(=O)N(CCc4ccccc4)CC(=O)N3CCC2)=C1	-42.7 ± 2.4
COc1ccccc1-c1c(C(F)(F)F)oc2cc(OC(=O)c3ccc([N+](=O)[O-])cc3)ccc2c1=O	26.6 ± 3.1
CCC(NC(C)C)C(O)c1ccc(O)c(O)c1 (configuration not stated)	-6.27 ± 12
CC(C)C1CC(CCNCc2ccc(N(C)C)cc2)(c2ccccc2)CCO1 (configuration not stated)	-4.73 ± 11
CN1CCc2cccc3c2[C@H]1Cc1ccc(O)c(O)c1-3	-15.5 ± 14

Compound	CD40L-induced NF-kB luciferase activity
CCOc1ccc(OCCSc2nc3ccccc3[nH]2)cc1	16 ± 4
c1cnc2c(c1)ccc1cccnc12	-7.58 ± 0.49
CC1(C)CC(=O)c2cc(O)ccc2O1	-0.318 ± 0.62
Cc1ccc2nc(N=C(N)N)nc(C)c2c1	7.05 ± 1.1
COc1cc(C(=O)N/C(=C\c2cn(C)c3ccccc23)C(=O)NCCCO)cc(OC)c1OC	3.2 ± 3.9
CCn1ccnc1CN(C)Cc1cn(-c2cccc(C)c2)nc1-c1cccc(F)c1	-2.44 ± 2.7
Cc1ccc(-c2nn(-c3cccc(F)c3)cc2CN2CCN(c3ccccn3)CC2)o1	-0.649 ± 2.2
COc1cc(C2Nc3ccccc3C(=O)N2c2ccccc2)ccc1O (configuration not stated)	28.6 ± 3
N/C(=N\OC(=O)CCCOc1ccc(Cl)cc1Cl)c1ccccn1	4.49 ± 1
Cc1cc(Cl)cc2c1NC(=O)[C@]21[C@@H]2C(=O)N(Cc3ccccc3)C(=O)[C@@H]2[C@@H]2CCCN21	-2.34 ± 3.9
NC12CC3CC(CC(C3)C1)C2	-8.84 ± 12
Clc1ccc(COC(Cn2ccnc2)c2ccc(Cl)cc2Cl)c(Cl)c1 (configuration not stated)	-10.8 ± 1.1
O=C(Nc1cccc(Cl)c1)N1CCN2C(=O)c3ccccc3C12c1ccccc1 (configuration not stated)	2.79 ± 2.5
Cc1nc2ccccc2n1CC(=O)NC1CCCC1	-7.44 ± 4.4
Cc1cccc(-n2c(Cc3ccccc3)n[nH]c2=S)c1	1.39 ± 6.7
O[C@@H](CNC[C@H](O)c1ccccc1)c1ccccc1	-6.32 ± 1.5
CN1CCN(C2=Nc3cc(Cl)ccc3Nc3ccccc32)CC1	-0.132 ± 1.1
O=C(CS(=O)(=O)c1ccccc1)c1ccc2c(c1)OCCO2	47.4 ± 11
Cc1cn([C@H]2C[C@H](N=[N+]=[N-])[C@@H](CO)O2)c(=O)[nH]c1=O	-2.58 ± 1.1

Compound	CD40L-induced NF-kB luciferase activity
COC(=O)[C@@H](N)CS	-1.29 ± 2.6
COc1ccc([C@@H]2Sc3ccccc3N(CCN(C)C)C(=O)[C@@H]2OC(C)=O)cc1	5.1 ± 0.79
CN(CCCN1CCOCC1)Cc1cn(C)nc1-c1ccccc1F	-0.178 ± 0.15
Cc1onc(-c2c(Cl)cccc2Cl)c1C(=O)NC1C(=O)N2C1SC(C)(C)C2C(=O)O (configuration not stated)	1.82 ± 6.3
O=C(c1cccc2ccccc12)C1CCCN(C(=O)CCN2CCCO2)C1 (configuration not stated)	2.54 ± 2
CN(C)CCN(Cc1ccc(Cl)cc1)c1ccccn1	-9.63 ± 1.9
CC(C[N+](C)(C)C)OC(N)=O (configuration not stated)	0.195 ± 3.1
Cc1cccc2c1CC(C)(C)N/C2=C\C(N)=O	0.514 ± 2.1
CCOC(=O)C1NN=C(C(=O)c2ccccc2)C1c1ccc(Cl)cc1 (configuration not stated)	-1.13 ± 2
Cc1ccc2c(c1)C(CCN)C(=O)N2Cc1ccccc1 (configuration not stated)	1.33 ± 2
COC(=O)c1cc(Br)c(=O)n(CCc2ccc(O)cc2)c1	-2.88 ± 1.4
CC(C)c1ccc2[nH]c3c(c2c1)CCCC3=O	-5.19 ± 1.1
CN1/C(=C\C=Nc2ccccc2)C(C)(C)c2ccccc21	4.74 ± 6.2
COc1cc(NC(=O)COc2ccccc2)c(OC)cc1NC(C)=O	2.35 ± 11
CN(C)CCCNc1ncnc2c1cnn2-c1ccccc1	27.2 ± 0.45
COc1cc(C(=O)NCCc2c[nH]c3ccccc23)ccc1OCc1c(C)noc1C	2.18 ± 3.7
CC1(C)[C@@H](O)CC[C@]2(C)[C@H]3C(=O)C=C4[C@@H]5C[C@@](C)(C(=O)O)CC[C@]5(C)CC[C@@]4(C)[C@]3(C)CC[C@@H]12	-8.18 ± 12
Cc1ccc2c(ccc(=S)n2C)c1	2.71 ± 0.058
O=C(O)CCCNc1ccc(S(=O)(=O)Nc2ccccc2C(=O)O)cc1C(=O)O	0.353 ± 1.5
